Among the data in the antibiotic and cytotoxicity screens of Wong et al. (2023) are cytotoxicity call and growth inhibition call values, retold here.

This is one part of the list.

Experiment [1] relates to HSkMC (human skeletal muscle cells). In words: cytotoxicity call (relative viability < 0.9). The conditions noted are these: 10 µM.
The subject of experiment [2] is HepG2. In words: cytotoxicity call (relative viability < 0.9). The conditions noted are these: 10 µM.
For experiment [3], the system named is S. aureus RN4220. Briefly: growth inhibition call (relative growth <= 0.2). The conditions noted are these: 50 µM.

Regarding `COc1ccc(S(=O)(=O)N(C)C[C@@H]2Oc3ccc(NC(=O)Cc4ccccc4)cc3C(=O)N([C@@H](C)CO)C[C@H]2C)cc1`, the cytotoxicity call in experiment [1] and in experiment [2] was “inactive” throughout. Further, in experiment [3], the growth inhibition call is “inactive”.

In the case of `COc1ccc(C#Cc2cnc3c(c2)C(=O)N([C@@H](C)CO)C[C@@H](C)[C@@H](CN(C)CC2CCOCC2)O3)cc1`, the cytotoxicity call in experiment [1] and in experiment [2] was “inactive” in each case. Besides, in experiment [3], the growth inhibition call is “inactive”.

For the compound `C[C@@H]1CCCCO[C@@H](CN(C)Cc2ccc(C(F)(F)F)cc2)[C@H](C)CN([C@H](C)CO)C(=O)c2cc(NC(=O)CCCN(C)C)ccc2O1`, the cytotoxicity call in experiment [1] and in experiment [2] was “inactive” throughout. In experiment [3], the growth inhibition call was “inactive”.

For `C[C@H]1CN([C@@H](C)CO)C(=O)c2cccc(NC(=O)c3ccc(-c4nccs4)cc3)c2O[C@H]1CN(C)Cc1ccc2c(c1)OCO2`, the cytotoxicity call in experiment [1] and in experiment [2] was “inactive” each time. Further, the growth inhibition call in experiment [3] is “inactive”.

For the compound `COc1ccc(CN(C)C[C@@H]2OCCCC[C@@H](C)Oc3ccc(NS(=O)(=O)c4c(C)noc4C)cc3C(=O)N([C@@H](C)CO)C[C@H]2C)cc1`, the cytotoxicity call in experiment [1] and in experiment [2] was “inactive” in each case. Moreover, in experiment [3], the growth inhibition call is “inactive”.

Regarding `Cn1c(=O)c2cc(S(=O)(=O)N3CCOCC3)ccc2n(C)c1=O`, the cytotoxicity call in experiment [1] and in experiment [2] was “inactive” each time. The growth inhibition call in experiment [3] is “inactive”.

On to `CN1C(=O)CCC1c1cccnc1` (stereo unspecified), for which the cytotoxicity call in experiment [1] and in experiment [2] was “inactive” throughout. Besides, in experiment [3], the growth inhibition call was “inactive”.

Consider `C[C@H](CO)N1C[C@H](C)[C@H](CN(C)Cc2ccc(C(=O)Nc3ccccc3N)cc2)Oc2c(NC(=O)Nc3ccc(F)cc3)cccc2C1=O`, for which the cytotoxicity call in experiment [1] and in experiment [2] was “inactive” each time. Also, in experiment [3], the growth inhibition call was “inactive”.

On to `C[C@@H]1CCCCO[C@@H](CN(C)C(=O)c2ccccc2)[C@@H](C)CN([C@H](C)CO)C(=O)c2cc(NC(=O)Nc3ccc(C(F)(F)F)cc3)ccc2O1`, for which the cytotoxicity call in experiment [1] is “inactive”. Further, in experiment [2], the cytotoxicity call was “active”. For the same compound, the growth inhibition call in experiment [3] is “inactive”.

With `Cc1ccc(S(=O)(=O)N(C)C[C@H]2Oc3ccc(NS(C)(=O)=O)cc3C(=O)N([C@@H](C)CO)C[C@@H]2C)cc1`, the cytotoxicity call in experiment [1] and in experiment [2] was “inactive” each time. For the same compound, the growth inhibition call in experiment [3] was “inactive”.

For `C[C@H](CO)N1C[C@H](C)[C@@H](CN(C)CC2CCOCC2)Oc2cc(Br)ccc2S1(=O)=O`, the cytotoxicity call in experiment [1] and in experiment [2] was “inactive” each time. The growth inhibition call in experiment [3] is “inactive”.

Regarding `CO[C@@H]1CN(C)C(=O)c2ccc(NC(=O)C3CCOCC3)cc2OC[C@@H](C)N(C(=O)Nc2ccc(C(F)(F)F)cc2)C[C@H]1C`, the cytotoxicity call in experiment [1] and in experiment [2] was “inactive” in each case. Besides, the growth inhibition call in experiment [3] is “active”.

Turning to `C[C@@H]1CCCCO[C@H](CN(C)S(=O)(=O)c2ccc(Cl)cc2)[C@@H](C)CN([C@H](C)CO)C(=O)c2cc(NS(=O)(=O)c3ccc(F)cc3)ccc2O1`, the cytotoxicity call in experiment [1] and in experiment [2] was “inactive” each time. Further, the growth inhibition call in experiment [3] was “inactive”.

With `COc1ccc(NC(=O)Nc2cccc3c2O[C@H](CN(C)Cc2ccc(C(F)(F)F)cc2)[C@H](C)CN([C@H](C)CO)C3=O)cc1`, the cytotoxicity call in experiment [1] and in experiment [2] was “inactive” each time. The growth inhibition call in experiment [3] was “inactive”.

For the compound `C=CCC[C@@H](Cc1ccc(F)cc1)C(=O)OC[C@H](Cc1c[nH]c2ccccc12)NC(=O)[C@@H](CC=C)CC(=O)N(CCO)Cc1ccccc1`, the cytotoxicity call in experiment [1] and in experiment [2] was “inactive” each time. In addition, the growth inhibition call in experiment [3] is “inactive”.

For `C[C@@H]1CN([C@H](C)CO)C(=O)c2cc(NC(=O)Nc3ccc(F)cc3)ccc2O[C@@H](C)CCCCO[C@@H]1CN(C)S(=O)(=O)c1ccc(F)cc1`, the cytotoxicity call in experiment [1] and in experiment [2] was “inactive” throughout. Further, the growth inhibition call in experiment [3] is “inactive”.

On to `C[C@@H]1CN([C@H](C)CO)C(=O)c2cc(NC(=O)Nc3ccc4c(c3)OCO4)ccc2O[C@@H]1CN(C)C(=O)Nc1cccc2ccccc12`, for which the cytotoxicity call in experiment [1] was “active”. Moreover, in experiment [2], the cytotoxicity call is “inactive”. Further, the growth inhibition call in experiment [3] is “inactive”.

Turning to `CO[C@H]1CN(C)C(=O)c2cc(NS(=O)(=O)c3cn(C)cn3)ccc2OC[C@@H](C)N(Cc2cccc(F)c2)C[C@H]1C`, the cytotoxicity call in experiment [1] and in experiment [2] was “inactive” each time. Moreover, the growth inhibition call in experiment [3] is “inactive”.

As for `NC1CCC(c2ccccc2)CC1` (stereo unspecified), the cytotoxicity call in experiment [1] and in experiment [2] was “inactive” throughout. The growth inhibition call in experiment [3] was “inactive”.

Consider `C[C@@H]1CN([C@@H](C)CO)C(=O)c2cc(NC(=O)Cc3cn(C)c4ccccc34)ccc2O[C@@H]1CN(C)Cc1ccc(C(=O)Nc2ccccc2N)cc1`, for which the cytotoxicity call in experiment [1] and in experiment [2] was “inactive” each time. Moreover, in experiment [3], the growth inhibition call is “inactive”.

For the compound `COc1ccc(C#Cc2ccc3c(c2)O[C@H](CN(C)C(=O)c2ccccn2)[C@H](C)CN([C@H](C)CO)S3(=O)=O)cc1`, the cytotoxicity call in experiment [1] and in experiment [2] was “inactive” each time. Moreover, in experiment [3], the growth inhibition call is “inactive”.

Take `C=CC[C@@H](CC(=O)N(CCO)Cc1ccccc1)C(=O)N[C@H](COC(=O)[C@@H](CC=C)Cc1ccc(F)cc1)C(C)(C)C`: the cytotoxicity call in experiment [1] and in experiment [2] was “inactive” throughout. Besides, the growth inhibition call in experiment [3] is “inactive”.

Turning to `C[C@H](CO)N1C[C@H](C)[C@H](CN(C)Cc2ccc(C(=O)O)cc2)OCCCC[C@H](C)Oc2ccc(NS(=O)(=O)c3ccccc3)cc2C1=O`, the cytotoxicity call in experiment [1] and in experiment [2] was “inactive” throughout. For the same compound, the growth inhibition call in experiment [3] was “inactive”.

Take `CN(C)c1cc(NC(=O)CNC(C)(C)C)c(O)c2c1CC1CC3C(N(C)C)C(O)=C(C(N)=O)C(=O)C3(O)C(O)=C1C2=O` (stereo unspecified): the cytotoxicity call in experiment [1] and in experiment [2] was “inactive” throughout. Besides, in experiment [3], the growth inhibition call is “inactive”.

On to `COC(=O)[C@H](Cc1ccc(-n2cc(-c3ccc(C(=O)NO)cc3)nn2)cc1)N1CC2=C[C@H]([C@@H](O)Cc3ccccc3)n3c(=O)n(C)c(=O)n3[C@@H]2[C@@H](C2CC2)O1`, for which the cytotoxicity call in experiment [1] and in experiment [2] was “inactive” each time. Besides, in experiment [3], the growth inhibition call was “inactive”.

Turning to `C[C@@H]1CCCCO[C@@H](CN(C)CC2CCCCC2)[C@@H](C)CN([C@H](C)CO)C(=O)c2cc(NC(=O)Cc3ccccc3)ccc2O1`, the cytotoxicity call in experiment [1] and in experiment [2] was “inactive” each time. Also, the growth inhibition call in experiment [3] was “inactive”.

Take `COc1ccc2c3c(n(c2c1)C)[C@@H](CO)N(C[C@]13CCN(CC1)C(=O)Nc1ccc(cc1)F)C(=O)c1ccc(cc1)F`: the cytotoxicity call in experiment [1] and in experiment [2] was “inactive” each time. The growth inhibition call in experiment [3] is “inactive”.
